Whole data set: some 33,000 sequences, median “E-score (-0.5 to 0.5)” near -0.035, cut for the highest 2% near 0.35. This is one part of the list.
These sequences were tested against T1, Pdr3 (UniProt P33200) (assay: PBM E-score (8-mer binding enrichment) (E-score (-0.5 to 0.5)); higher = stronger / more preferred TF binding; most listed sequences are background and not binding sites). Details: protein concentration: 200 nM; construct: GST-full length.
T1 sequence: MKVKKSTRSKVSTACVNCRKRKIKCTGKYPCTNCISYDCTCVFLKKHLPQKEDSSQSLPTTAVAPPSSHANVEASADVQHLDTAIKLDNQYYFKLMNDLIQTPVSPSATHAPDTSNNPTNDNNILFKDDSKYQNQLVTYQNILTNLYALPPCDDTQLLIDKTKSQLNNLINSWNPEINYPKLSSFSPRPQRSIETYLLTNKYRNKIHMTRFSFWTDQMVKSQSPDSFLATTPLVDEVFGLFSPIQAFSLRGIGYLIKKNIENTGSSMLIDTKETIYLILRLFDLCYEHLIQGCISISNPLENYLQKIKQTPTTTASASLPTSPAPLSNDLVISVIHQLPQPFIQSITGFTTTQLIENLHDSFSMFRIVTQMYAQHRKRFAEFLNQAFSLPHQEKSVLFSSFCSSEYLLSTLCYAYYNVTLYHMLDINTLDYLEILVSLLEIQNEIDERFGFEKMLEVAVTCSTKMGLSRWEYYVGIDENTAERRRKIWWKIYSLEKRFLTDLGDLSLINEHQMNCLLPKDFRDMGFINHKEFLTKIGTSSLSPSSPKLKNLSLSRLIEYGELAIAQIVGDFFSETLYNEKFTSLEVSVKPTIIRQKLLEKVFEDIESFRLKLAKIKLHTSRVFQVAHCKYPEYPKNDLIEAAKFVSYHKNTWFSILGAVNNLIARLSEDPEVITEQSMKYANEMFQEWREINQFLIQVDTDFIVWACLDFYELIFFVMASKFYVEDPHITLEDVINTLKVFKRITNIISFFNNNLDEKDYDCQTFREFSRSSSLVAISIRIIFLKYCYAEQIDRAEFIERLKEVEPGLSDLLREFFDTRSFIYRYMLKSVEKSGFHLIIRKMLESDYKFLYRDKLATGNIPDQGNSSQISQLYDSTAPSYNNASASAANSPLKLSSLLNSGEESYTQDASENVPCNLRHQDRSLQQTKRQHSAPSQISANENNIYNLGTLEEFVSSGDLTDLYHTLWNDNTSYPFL
Procedure: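 Universal 'all 10-mer' protein binding microarrays (Agilent AMADID 015681) probed with GST-tagged S. cerevisiae TFs (full-length or DBD) made by in vitro transcription/translation (PURExpress), about 100-200 nM. Bound TF was detected with fluorescent anti-GST. Each ungapped 8-mer (which stands for itself and its reverse complement) is scored by the PBM enrichment score (E-score), a modified Wilcoxon-Mann-Whitney statistic from -0.5 to +0.5, computed with the Universal PBM Analysis Suite. Scale: above 0.35 generally sequence-specific binding.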

| Sequence | PBM E-score |
| --- | --- |
| CTCTGCAG | -0.226 |
| AGGCCTTA | -0.254 |
| TATTATCA | -0.00298 |
| CAATGACG | -0.179 |
| ATGTAAGC | 0.0351 |
| CCTAAAGA | -0.277 |
| GTAATCGA | 0.0483 |
| AGTGGCTA | -0.311 |
| ACGAACAC | 0.0253 |
| TGGAAACA | -0.184 |
| GAGATTCA | 0.0192 |
| AAATCCTG | -0.107 |
| CACCGTAC | -0.119 |
| CATGCTTA | -0.197 |
| TCTAATCA | 0.0324 |
| GGATTTTA | 0.14 |
| CTACGTAG | -0.027 |
| AAGCGTCT | -0.162 |
| GCCTTTGA | -0.119 |
| GTAGTTAA | -0.033 |
| ACTTAGGA | -0.334 |
| AGAGCTGG | -0.0463 |
| GGGGCCAA | -0.0943 |
| GACTGTAA | -0.116 |
| GGAGCCCA | -0.138 |

| Sequence | PBM E-score |
| --- | --- |
| ACCGGGAA | 0.309 |
| GGGAGTAA | -0.0521 |
| AGGGGTAC | -0.0636 |
| CTATTCAA | -0.0593 |
| GTGACACA | 0.00547 |
| AGCTTGGC | -0.178 |
| ACTCATTG | -0.02 |
| AGCACGCG | 0.0788 |
| AGTAGATG | -0.0364 |
| CAGGCCAC | 0.00119 |
| AGCTCCGA | 0.239 |
| CCGCTAAG | 0.148 |
| CGGGCCCG | 0.44 |
| CAGACGCG | -0.217 |
| TAAACCGA | 0.0491 |
| AGGGCCAT | -0.144 |
| GTTCGTCA | -0.122 |
| AGCCCTGC | -0.173 |
| CGTGGGGA | 0.12 |
| CTAGGGCC | -0.2 |
| CCGATCAC | 0.184 |
| TACGGCTA | -0.151 |
| ATCGGTTC | 0.192 |
| AGCCTTCC | -0.0527 |
| CAGATGAG | -0.164 |

| Sequence | PBM E-score |
| --- | --- |
| CTCATGTC | -0.0622 |
| GCAGGTGA | -0.238 |
| AACGGCTT | 0.0106 |
| AGCCATGG | -0.264 |
| CACCGCCG | 0.0689 |
| CAATATGA | -0.0412 |
| GCTAAGAC | 0.0562 |
| CTGTATCC | 0.164 |
| CAAGCTCG | 0.134 |
| ATAAACGC | -0.109 |
| CCGTTGGC | 0.267 |
| ATACCCTA | -0.253 |
| AATCTCTA | -0.0032 |
| CGTTGCAA | 0.0158 |
| GCAGGGGA | -0.0573 |
| AGCCTGGC | -0.133 |
| CGGAACGC | 0.466 |
| GTAGCCCA | -0.27 |
| AGTAGACC | -0.0973 |
| CACCCCTA | -0.137 |
| CTGCCTGC | -0.271 |
| CGGACCTC | 0.287 |
| GCTATAGA | -0.193 |
| CCGGAGTC | 0.384 |
| AGTTTAAC | -0.113 |

| Sequence | PBM E-score |
| --- | --- |
| GATGCGGC | 0.109 |
| CGAGACTA | -0.0399 |
| CGCTTGGC | -0.21 |
| TAAGTGGA | -0.0436 |
| AGTCGCTG | -0.205 |
| ATTCAACC | 0.106 |
| ACAGTAAG | -0.0855 |
| ATCTCCAA | -0.0877 |
| CCGGAAGC | 0.444 |
| CGGTCTCA | -0.115 |
| GTCCCTCA | -0.142 |
| AGTTAAAT | -0.224 |
| GTCAAGCA | -0.183 |
| ATTCTCTC | -0.0624 |
| ATCATCAA | 0.0482 |
| TCGATGAA | 0.0252 |
| TAACTGCA | -0.111 |
| CTACAATA | -0.0767 |
| CGCTCGTA | -0.0554 |
| AAGTGAGA | -0.058 |
| GCTACAAC | -0.059 |
| TAGCGGGA | 0.14 |
| TAGGGGGA | -0.218 |
| AACTGGTA | -0.0616 |
| TTTCAAAA | -0.113 |

| Sequence | PBM E-score |
| --- | --- |
| TCAGCAGA | -0.151 |
| AGTACACT | -0.24 |
| GTTCCGAA | 0.471 |
| AACGAGGT | -0.104 |
| GTGTTTTA | -0.0862 |
| CCTCCGGA | 0.416 |
| CCGAGCAG | 0.127 |
| AACACCAG | -0.196 |
| ATTAACCA | -0.13 |
| GGGCATGA | -0.182 |
| ACGAGGCT | -0.136 |
| CTAATGGA | -0.0673 |
| CTATATTC | -0.142 |
| CCCCGATC | 0.212 |
| GTATCTTA | 0.111 |
| CCAAATAA | -0.15 |
| ATGGTATG | -0.0529 |
| AAATCAAG | 0.0523 |
| ACATGACA | -0.0834 |
| ACCTAACC | 0.0696 |
| CCAATCTC | 0.0944 |
| AGGGGGAC | -0.171 |
| ACCGCTTC | -0.102 |
| CCAGGTGA | -0.226 |
| CTTCGTTC | -0.0864 |

| Sequence | PBM E-score |
| --- | --- |
| CGAGACCC | 0.21 |
| CGTGTTCC | 0.383 |
| GCGTCTCC | 0.172 |
| GAGACGAA | -0.111 |
| ACCCAACC | -0.0307 |
| TCGGCAGA | 0.239 |
| AAGAACTT | 0.00973 |
| AGGTGCCA | -0.00884 |
| CTTGATGC | -0.136 |
| AGATGGAG | -0.127 |
| ATAATGAT | 0.0423 |
| GAAAAAAC | -0.0935 |
| CTTTCTCA | -0.193 |
| ATACGGTA | 0.0302 |
| ATACCACA | -0.0693 |
| GCGGTAGC | 0.1 |
| CACCTGGC | -0.107 |
| GAGTAGGC | 0.0149 |
| GCTCGGCC | 0.0745 |
| GCAAAGCA | -0.0785 |
| CTATCGAC | -0.146 |
| CTCCCGTC | 0.229 |
| ACAGTACT | -0.0851 |
| AGGGCTCA | -0.266 |
| AATCGGGA | 0.252 |

| Sequence | PBM E-score |
| --- | --- |
| ACAAATTC | 0.0513 |
| CAATCGGC | 0.04 |
| CACAATAA | -0.183 |
| CCAAGCTC | 0.00387 |
| CAGTATTC | 0.0217 |
| GCCAAACA | 0.0815 |
| TGTGCCAA | 0.0852 |
| CCTGACAG | -0.0625 |
| GCCGCACC | 0.197 |
| CTGTACGC | -0.206 |
| GCCGAAAA | 0.276 |
| AGTCAACT | -0.277 |
| CTAGTGCA | -0.104 |
| AAGTTCGA | 0.0312 |
| ATGCCTGC | -0.122 |
| CTACGTAA | -0.0539 |
| ATGGAGGC | -0.15 |
| CATACAGA | 0.0415 |
| TATGGCAA | -0.0456 |
| CCTATCTC | 0.094 |
| GACGGCTC | 0.0846 |
| CTGGAGCA | -0.126 |
